About 2,200 (0.71%) of roughly 310,000 compounds showed an effect of 50% or more. Effects have a minus sign here. The list shows a part of the results.
Molecular target: human ether-à-go-go-related gene (hERG) potassium channel (human, UniProt Q12809)
Experiment: primary screen, population patch clamp on CHO cells stably expressing hERG

human ether-à-go-go-related gene (hERG) potassium channel, sequence (Q12809 whole entry, looked up): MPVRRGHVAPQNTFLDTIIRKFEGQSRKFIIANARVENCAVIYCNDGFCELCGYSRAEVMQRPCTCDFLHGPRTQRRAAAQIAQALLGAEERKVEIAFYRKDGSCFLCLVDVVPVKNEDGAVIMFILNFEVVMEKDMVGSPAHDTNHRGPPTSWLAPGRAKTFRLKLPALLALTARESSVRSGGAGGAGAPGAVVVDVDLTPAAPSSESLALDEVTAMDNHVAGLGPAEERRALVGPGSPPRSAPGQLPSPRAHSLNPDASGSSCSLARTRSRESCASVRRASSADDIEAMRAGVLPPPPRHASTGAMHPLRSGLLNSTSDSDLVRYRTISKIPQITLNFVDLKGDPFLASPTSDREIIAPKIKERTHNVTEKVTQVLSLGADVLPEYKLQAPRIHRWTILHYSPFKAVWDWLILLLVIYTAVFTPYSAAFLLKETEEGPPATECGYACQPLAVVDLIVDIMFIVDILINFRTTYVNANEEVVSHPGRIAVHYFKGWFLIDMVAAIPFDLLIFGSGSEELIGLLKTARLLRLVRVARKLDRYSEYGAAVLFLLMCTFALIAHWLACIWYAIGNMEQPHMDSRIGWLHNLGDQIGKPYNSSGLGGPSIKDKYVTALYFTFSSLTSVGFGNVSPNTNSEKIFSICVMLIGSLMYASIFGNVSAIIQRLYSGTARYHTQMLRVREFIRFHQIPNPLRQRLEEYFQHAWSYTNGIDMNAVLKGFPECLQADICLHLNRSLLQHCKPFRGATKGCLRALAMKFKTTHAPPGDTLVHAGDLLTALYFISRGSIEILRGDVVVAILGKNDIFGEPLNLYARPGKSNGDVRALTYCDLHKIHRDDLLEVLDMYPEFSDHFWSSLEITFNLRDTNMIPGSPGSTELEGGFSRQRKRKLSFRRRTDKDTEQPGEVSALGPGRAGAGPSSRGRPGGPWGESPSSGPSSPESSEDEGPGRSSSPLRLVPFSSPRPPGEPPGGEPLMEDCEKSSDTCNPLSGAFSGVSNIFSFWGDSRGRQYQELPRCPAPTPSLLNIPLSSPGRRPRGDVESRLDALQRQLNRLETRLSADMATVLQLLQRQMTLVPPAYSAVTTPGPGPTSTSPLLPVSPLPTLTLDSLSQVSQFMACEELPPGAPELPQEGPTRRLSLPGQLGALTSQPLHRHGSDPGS

Row | SMILES | hERG current change (%, negative = inhibition) at 1uM
1 | COc1ccccc1C/C(N)=N/OC(=O)COc1cccc2ccccc12 | 0.942%
2 | Cc1n[nH]c(=O)n1-c1ccc(C(C)(C)C)cc1 | 15.3%
3 | CCCOc1ccc(CN(CCO)CCO)cc1C(=O)OC | 17.9%
4 | COC(=O)c1[nH]c2cc(OC)ccc2c1NC(=O)CCN1CCCCC1 | -10%
5 | COC(=O)c1ccc(NS(=O)(=O)c2ccc(SC)cc2)cc1 | 5.48%
6 | CCOC(=O)c1cccc(NS(=O)(=O)c2c(C(=O)N3CCCCCC3)c(C)n(C)c2C)c1 | -6.05%
7 | CC(=O)Nc1ccc(NC(=O)C/C(C)=N/NC(N)=S)cc1 | 11.9%
8 | CCOC(=O)N1CCC(NC(=O)C2=CCN(S(=O)(=O)c3ccccc3)CC2)CC1 | 14.7%
9 | CCN(CC)C(=O)C(=O)Nc1ccc(Oc2ccccc2)cc1 | 5.65%
10 | Oc1c(C=C2N=c3ccccc3=N2)sc(=S)n1-c1ccc(F)cc1 [17401255] | 18.3%
11 | CC(C)S(=O)(=O)c1csc(NC(=O)Nc2ccc(Cl)cc2)c1 | 8.55%
12 | COCCNC(=O)CCc1c(C)nc2c(c(C)nn2-c2ccc(C)cc2)c1C | 9.04%
13 | COc1ccc(CNC(=O)c2ccc(CS(=O)(=O)c3ccccc3C)o2)cc1 | 13.1%
14 | Cc1c(C(=O)Nc2ccc3c(c2)OCCO3)cnn1C | 16.4%
15 | NC(=O)c1ccc(-n2nnnc2Oc2ccccc2C(=O)N2CCOCC2)cc1 | 11.6%
16 | CCCCCSc1cc(OC)c(CCN(C)C)cc1OC.O=C(O)/C=C\C(=O)O | -16.9%
17 | COCCn1c(SCC(=O)N2CCCC2=O)nc2sc(C)c(C)c2c1=O | 17.5%
18 | CC1=C(C(N)=O)C(c2cccc(O)c2)n2nc(CCCO)nc2N1 (stereo not shown) | 11.3%
19 | Cc1cc(N2CCCC2)ccc1/C=C1/C(=O)N(C)C(=S)N1C | 2.66%
20 | COc1cc(CNCCSc2nnnn2C)cc(OC)c1OC.Cl | 3.45%
21 | Cc1ccccc1-n1c(=O)n(CCc2ccccc2)c(=O)c2[nH]cnc21 | 11.4%
22 | O=CN1c2ccccc2CSc2ccccc21 | 7.97%
23 | CCCc1cc(C(=O)NCC(C)C)no1 | 6.06%
24 | COc1ccc(OC)c(-c2nn(-c3ccccc3)cc2C(=O)NCC2CCCO2)c1 (stereo not shown) | 9.47%
25 | CCN(CC(=O)Nc1ccc(OC)cc1)C(=O)COc1cccc2c1OC(C)(C)C2 | 1.69%

— publication PMC4336329 (PLoS ONE, 2015)
